Source: article PMC4336329 (PLoS ONE, 2015)
Among all 310,000 compounds or so, about 2,200 (0.71%) showed an effect of 50% or more. The effect is printed as a negative number. This is one part of the list.

The compounds below were run against human ether-à-go-go-related gene (hERG) potassium channel (human, UniProt Q12809) (assay: primary screen, population patch clamp on CHO cells stably expressing hERG).
human ether-à-go-go-related gene (hERG) potassium channel, sequence (Q12809 whole entry, looked up): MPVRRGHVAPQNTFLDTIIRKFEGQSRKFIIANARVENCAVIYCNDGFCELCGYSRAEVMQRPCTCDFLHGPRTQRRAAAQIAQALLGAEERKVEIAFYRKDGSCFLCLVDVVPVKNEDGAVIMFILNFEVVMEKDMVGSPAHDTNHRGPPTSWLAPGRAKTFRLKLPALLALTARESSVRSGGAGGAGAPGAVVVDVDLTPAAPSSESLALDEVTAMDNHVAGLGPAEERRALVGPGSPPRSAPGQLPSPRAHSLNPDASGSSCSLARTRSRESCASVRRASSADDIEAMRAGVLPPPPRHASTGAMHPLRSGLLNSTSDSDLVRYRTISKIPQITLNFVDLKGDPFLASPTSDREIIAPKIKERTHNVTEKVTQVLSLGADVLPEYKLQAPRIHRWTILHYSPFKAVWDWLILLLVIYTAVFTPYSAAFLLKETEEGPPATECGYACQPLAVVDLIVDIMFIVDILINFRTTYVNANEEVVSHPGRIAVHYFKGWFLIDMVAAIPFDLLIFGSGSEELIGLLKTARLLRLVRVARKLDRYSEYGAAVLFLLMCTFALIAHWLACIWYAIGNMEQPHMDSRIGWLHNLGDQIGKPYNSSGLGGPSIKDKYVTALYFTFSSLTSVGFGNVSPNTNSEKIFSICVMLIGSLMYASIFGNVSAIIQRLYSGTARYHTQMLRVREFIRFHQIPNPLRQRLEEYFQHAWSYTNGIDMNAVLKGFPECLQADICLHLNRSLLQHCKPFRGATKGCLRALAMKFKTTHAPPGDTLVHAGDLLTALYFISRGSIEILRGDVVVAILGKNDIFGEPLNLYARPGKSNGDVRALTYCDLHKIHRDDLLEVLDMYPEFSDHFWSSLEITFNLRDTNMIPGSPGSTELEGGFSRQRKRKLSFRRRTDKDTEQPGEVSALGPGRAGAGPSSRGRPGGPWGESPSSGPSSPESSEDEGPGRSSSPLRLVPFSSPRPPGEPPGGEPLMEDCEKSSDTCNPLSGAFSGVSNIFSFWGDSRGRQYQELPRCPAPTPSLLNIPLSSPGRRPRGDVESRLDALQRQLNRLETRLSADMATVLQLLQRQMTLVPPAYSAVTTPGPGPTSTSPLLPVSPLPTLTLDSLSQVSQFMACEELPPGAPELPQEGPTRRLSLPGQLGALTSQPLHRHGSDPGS
`COc1ccc(N(C(=O)c2ccncc2)S(=O)(=O)c2ccc(F)cc2)cc1` was tested, and the “hERG current change (%, negative = inhibition) at 1uM” value was 16.6%. `CS(=O)(=O)Nc1ccc(C(=O)NCc2ccco2)cc1` was tested, and the “hERG current change (%, negative = inhibition) at 1uM” value was 16.3%. In the case of `C/C(=N/NC(=O)CN1CCN(S(=O)(=O)c2ccc(Br)cc2)CC1)c1ccco1`, the “hERG current change (%, negative = inhibition) at 1uM” value is reported as -17.3%. With `CCOC(=O)NC(=O)CSc1ccc2ccccc2n1` the “hERG current change (%, negative = inhibition) at 1uM” value was 15.6%. With `Cc1ccc(NC(=S)C2=C(O)c3ccccc3N(C)S2(=O)=O)cc1` the “hERG current change (%, negative = inhibition) at 1uM” value was 8.11%. `CN(CC(=O)Nc1ccc(F)cc1)C(=O)Cn1nnc(-c2ccccc2)n1` was tested, and the “hERG current change (%, negative = inhibition) at 1uM” value was 7.23%. In the case of `Cc1ccc(F)cc1N=Cc1c(O)c2ccccc2oc1=O`, the “hERG current change (%, negative = inhibition) at 1uM” value is reported as 13.4%. In the case of `CC(=O)Nc1cc2nc(C)n(Cc3ccccc3)c2nc1C`, the “hERG current change (%, negative = inhibition) at 1uM” value is reported as 3.72%. In the case of `CCC(c1ccccc1)c1nc(-c2ccccn2)no1` (stereo not drawn), the “hERG current change (%, negative = inhibition) at 1uM” value is reported as 14.8%. `CC(C)(C)c1ccc(C(=O)NC(=S)N2CCCCCC2)cc1` was tested, and the “hERG current change (%, negative = inhibition) at 1uM” value was 5.47%. With `CCCC1=NN(c2ccc([N+](=O)[O-])cc2)C(=O)/C1=C\N(C)C` the “hERG current change (%, negative = inhibition) at 1uM” value was 11.6%. `O=C(Cn1c(=O)n(Cc2ccco2)c(=O)c2c3c(sc21)CCCCC3)Nc1ccccc1` was tested, and the “hERG current change (%, negative = inhibition) at 1uM” value was -3.13%. `Cc1ccc2c(c1)N(Cc1cccc(C#N)c1)C=NS2(=O)=O` was tested, and the “hERG current change (%, negative = inhibition) at 1uM” value was 13.8%. `O=C(Cc1cccs1)Nc1cccc(C(=O)Nc2ccco2)c1` was tested, and the “hERG current change (%, negative = inhibition) at 1uM” value was 3.06%. For `S=c1[nH]nc(-c2cc(-c3ccccc3)n[nH]2)n1/N=C/c1cccc(Cl)c1`, the “hERG current change (%, negative = inhibition) at 1uM” value was 20.6%. `Cc1cc(N)n(-c2ccc([N+](=O)[O-])cc2)n1` was tested, and the “hERG current change (%, negative = inhibition) at 1uM” value was 2.87%. `CCOC(=O)c1c(NC(=O)C2CCN(S(=O)(=O)c3cccs3)CC2)sc(C)c1C` was tested, and the “hERG current change (%, negative = inhibition) at 1uM” value was 3.89%. In the case of `COC(=O)c1ccc[n+](CC(=O)c2ccc(Br)cc2)c1.[Cl-]`, the “hERG current change (%, negative = inhibition) at 1uM” value is reported as -8.7%. `COc1ccccc1NC(=S)NNC(=O)c1ccccc1Br` was tested, and the “hERG current change (%, negative = inhibition) at 1uM” value was 2.87%. For `N#Cc1c(NC(=O)c2cccc(S(=O)(=O)Nc3ccc(C(=O)O)cc3)c2)sc2c1CCCC2`, the “hERG current change (%, negative = inhibition) at 1uM” value was -1.13%. `CCc1ccc(/C=N/N2CCN(c3ccccn3)CC2)cc1` was tested, and the “hERG current change (%, negative = inhibition) at 1uM” value was -0.434%. `Cc1cc(C(=O)NNc2ccc(C(C)C)cc2)n(C(C)(C)C)n1` was tested, and the “hERG current change (%, negative = inhibition) at 1uM” value was 11.6%. In the case of `CCC(C)NCCCOc1ccc(Cl)cc1C(C)(C)C.O=C(O)C(=O)O` (stereo not drawn), the “hERG current change (%, negative = inhibition) at 1uM” value is reported as 15.2%. `COc1ccc(NC(=O)Cc2ccc(Cl)cc2)cc1NC(=O)c1ccco1` was tested, and the “hERG current change (%, negative = inhibition) at 1uM” value was 4.7%. `CC1(CC(=O)N/N=C/c2ccc(-c3cccc(C(F)(F)F)c3)o2)OCCO1` was tested, and the “hERG current change (%, negative = inhibition) at 1uM” value was 1.45%. In the case of `COc1ccc(CC(=O)NCc2ccc(F)cc2)cc1S(=O)(=O)N1CCOCC1`, the “hERG current change (%, negative = inhibition) at 1uM” value is reported as 4.78%. With `CC(=O)Nc1cccc(OCCCNS(=O)(=O)c2ccc(C#N)cc2)c1` the “hERG current change (%, negative = inhibition) at 1uM” value was 3.85%. In the case of `COc1nc(C)ccc1-c1noc(-c2cccnc2)n1`, the “hERG current change (%, negative = inhibition) at 1uM” value is reported as 5.05%. `COc1cccc(CC(=O)OCC(=O)NC2(C#N)CCCC2)c1` was tested, and the “hERG current change (%, negative = inhibition) at 1uM” value was 2.44%. With `CN(C(=O)C1CCCCC1)C1(C)CCS(=O)(=O)C1` (stereo not drawn) the “hERG current change (%, negative = inhibition) at 1uM” value was 3.96%. For `O=C1CN(C(=O)COC(=O)c2cnc(Cl)c(Cl)c2)c2ccccc2N1`, the “hERG current change (%, negative = inhibition) at 1uM” value was 12%. For `Oc1ccc(CNc2ccccc2F)c2cccnc12`, the “hERG current change (%, negative = inhibition) at 1uM” value was 15.4%. `COc1ccc(NS(=O)(=O)c2cccc(C(=O)N(C)CC(=O)Nc3ccc(C)cc3)c2)cc1` was tested, and the “hERG current change (%, negative = inhibition) at 1uM” value was -1.97%. `COC(=O)C1C(=O)C=C(Nc2ccc(F)cc2)CC1c1ccc(OC)cc1` (stereo not drawn) was tested, and the “hERG current change (%, negative = inhibition) at 1uM” value was 9.98%. `Cc1cccc(N=C2N=C(N)c3ccccc32)c1` was tested, and the “hERG current change (%, negative = inhibition) at 1uM” value was -8.5%. With `COC(=O)C1=C(CSCc2ccccc2)NC(=O)NC1c1cc(C)ccc1C` (stereo not drawn) the “hERG current change (%, negative = inhibition) at 1uM” value was -3.8%. In the case of `Cn1c(=O)cc(SCC(=O)N2CCN(C3CCCCC3)CC2)c2ccccc21`, the “hERG current change (%, negative = inhibition) at 1uM” value is reported as -3.36%. `COc1cc2ccccc2cc1C(=O)OCC(=O)NC1CCS(=O)(=O)C1` (stereo not drawn) was tested, and the “hERG current change (%, negative = inhibition) at 1uM” value was 2.02%. For `Cc1c(Cl)cccc1N1CC(C(=O)Nc2nccs2)CC1=O` (stereo not drawn), the “hERG current change (%, negative = inhibition) at 1uM” value was 7.24%. With `O=C(COC(=O)CNC(=O)c1ccc(Cl)cc1Cl)NCc1ccco1` the “hERG current change (%, negative = inhibition) at 1uM” value was 4.96%. `Cc1cc(C)cc(NC(=O)NCC2CCN(Cc3cc(C)ccc3C)CC2)c1` was tested, and the “hERG current change (%, negative = inhibition) at 1uM” value was -2.94%. `O=C(NCCCN1CCOCC1)C(=O)N/N=C/c1c2ccccc2cc2ccccc12` was tested, and the “hERG current change (%, negative = inhibition) at 1uM” value was 8.07%. In the case of `NS(=O)(=O)c1ccc(N/N=C/c2cn(-c3ccccc3)nc2-c2ccccc2)c([N+](=O)[O-])c1`, the “hERG current change (%, negative = inhibition) at 1uM” value is reported as 12.3%. With `O=C(CN1CCCCCC1)Nc1cccc([N+](=O)[O-])c1` the “hERG current change (%, negative = inhibition) at 1uM” value was 7.71%. With `COc1ccc(OC)c(/C=N\NC(=O)c2ccc(=O)n(C)c2)c1` the “hERG current change (%, negative = inhibition) at 1uM” value was 5.17%. For `Cc1cccc(-c2c3c(nc4c2c(=O)n(C)c(=O)n4C)-c2ccccc2C3O)c1` (stereo not drawn), the “hERG current change (%, negative = inhibition) at 1uM” value was 10.7%. `CS(=O)(=O)N(CC(=O)N1CCN(Cc2ccccc2)CC1)c1ccc2c(c1)OCCO2` was tested, and the “hERG current change (%, negative = inhibition) at 1uM” value was 6.03%. In the case of `Cc1cccc(-n2nc3c(c2NC(=O)c2cc4ccccc4o2)CS(=O)(=O)C3)c1`, the “hERG current change (%, negative = inhibition) at 1uM” value is reported as 0.99%. With `Fc1ccccc1-c1[nH]ncc1-c1nnnn1-c1ccccc1` the “hERG current change (%, negative = inhibition) at 1uM” value was 8.83%. In the case of `CCCNC(=S)Nc1ccc(Br)cc1`, the “hERG current change (%, negative = inhibition) at 1uM” value is reported as 10.8%. With `CCn1cc(Cl)c(C(=O)Nc2cccc(CN3CCOCC3)c2)n1` the “hERG current change (%, negative = inhibition) at 1uM” value was 13.2%. In the case of `CCCC(O)(CCC)C(=O)NN(C(=O)CCl)c1ccccc1`, the “hERG current change (%, negative = inhibition) at 1uM” value is reported as 5.88%. `O=C(c1ccccn1)N1CCN(S(=O)(=O)c2ccccc2)CC1` was tested, and the “hERG current change (%, negative = inhibition) at 1uM” value was 10.2%. `Cc1nc2sccn2c(=O)c1S(=O)(=O)NCCc1ccc(Cl)cc1` was tested, and the “hERG current change (%, negative = inhibition) at 1uM” value was 18.6%. In the case of `CCN(CC)S(=O)(=O)c1cccc(-c2nnc(SCC(=O)c3ccc(Cl)s3)n2C)c1`, the “hERG current change (%, negative = inhibition) at 1uM” value is reported as 5.39%. With `Cc1cccc(NC(=S)N2CCN(c3ccccn3)CC2)c1` the “hERG current change (%, negative = inhibition) at 1uM” value was 9.17%. For `Cc1ccc(C(C)NC(=O)c2cc3cc(Br)ccc3oc2=N)cc1` (stereo not drawn), the “hERG current change (%, negative = inhibition) at 1uM” value was 1.91%.
